# In the supplement of paper PMC4604168 (melanoma cell lines):
# Some of the results follow. Repeats are few or missing, and single values can be far off.
# How the values were obtained:
# Assay in all cases: cell count relative to DMSO control; melanoma cells; higher = more viable cells
# Details in all cases: library dose: low library concentration; 72 h
# [1] = test system: MZ2-MEL
# [2] = test system: MeWo
# [3] = test system: RPMI7951
# [4] = test system: RVH-421
# [5] = test system: SkMel28
# [6] = test system: SkMel2
# [7] = test system: SkMel30
# [8] = test system: UACC62
# [9] = test system: SkMel5
# [10] = test system: UACC257
# 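Further: cell number obtained by counting DAPI-stained nuclei in high-throughput microscope images with image analysis software, screen run in 1,536-well plates.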
SMILES,cell count [1],cell count [2],cell count [3],cell count [4],cell count [5],cell count [6],cell count [7],cell count [8],cell count [9],cell count [10]
"O=C(Nc1cc(C(F)(F)F)cc(C(F)(F)F)c1)c1cc(Cl)ccc1O + CN1CCN(c2ccc3nc(-c4c(N)c5c(F)cccc5[nH]c4=O)[nH]c3c2)CC1 [Dovitinib] (first compound 0.016 µM, partner dose 0.1 µM)",95.7%,84.7%,105%,114%,98.7%,99.7%,82.8%,104%,–,–
"Cc1cc(N2CCOCC2)cc2[nH]c(-c3c(NC[C@@H](O)c4cccc(Cl)c4)cc[nH]c3=O)nc12 + COC(=O)c1sccc1S(=O)(=O)Nc1ccc(Nc2ccccc2)cc1OC [GSK0660] (first compound 0.2 µM, partner dose 1 µM)",94.8%,99.7%,101%,116%,97.6%,–,88.2%,78.4%,94.6%,97.7%
"Cc1cc(N2CCOCC2)cc2[nH]c(-c3c(NC[C@@H](O)c4cccc(Cl)c4)cc[nH]c3=O)nc12 + O=S(=O)(c1ccccc1)N(CC(F)(F)F)c1ccc(C(O)(C(F)(F)F)C(F)(F)F)cc1 [T0901317] (first compound 0.2 µM, partner dose 1.4 µM)",110%,96.5%,109%,113%,89.7%,–,77.4%,87.4%,70.3%,73.7%
"O=C(Nc1cc(C(F)(F)F)cc(C(F)(F)F)c1)c1cc(Cl)ccc1O + Cn1sc(=O)n(Cc2ccccc2)c1=O [TDZD-8] (first compound 0.016 µM, partner dose 0.4 µM)",97.8%,93.8%,89.2%,113%,118%,94.2%,111%,115%,–,–
"Cc1cc(N2CCOCC2)cc2[nH]c(-c3c(NC[C@@H](O)c4cccc(Cl)c4)cc[nH]c3=O)nc12 + O=C(Nc1ccccc1)c1cc([N+](=O)[O-])ccc1Cl [GW9662] (first compound 0.2 µM, partner dose 2 µM)",103%,89.9%,135%,105%,110%,–,101%,84.2%,95.7%,83.5%
"O=C(Nc1cc(C(F)(F)F)cc(C(F)(F)F)c1)c1cc(Cl)ccc1O + COc1ccc(Cl)c(Nc2nc3ccccc3nc2NS(=O)(=O)c2cccc(NC(=O)C(C)(C)N)c2)c1 [XL147] (first compound 0.016 µM, partner dose 0.8 µM)",87.2%,89.6%,125%,103%,94.2%,103%,101%,92.3%,–,–
"O=C(Nc1ccccc1)c1cc([N+](=O)[O-])ccc1Cl + CC(C)CCN1c2nc(Nc3cc(F)c(O)c(F)c3)ncc2N(C)C(=O)C1C [BID1870] (first compound 2 µM, partner dose 0.2 µM)",99.8%,80.3%,125%,102%,104%,–,103%,91.3%,88.6%,88.3%
"O=C(Nc1ccccc1)c1cc([N+](=O)[O-])ccc1Cl + COc1cc(N2CCC(N3CCN(C)CC3)CC2)ccc1Nc1ncc(Cl)c(Nc2ccccc2S(=O)(=O)C(C)C)n1 [NVP-TAE684] (first compound 2 µM, partner dose 0.08 µM)",92.4%,96.3%,90.1%,78.9%,103%,–,94.6%,95.4%,78%,83.2%
"Cc1cc(N2CCOCC2)cc2[nH]c(-c3c(NC[C@@H](O)c4cccc(Cl)c4)cc[nH]c3=O)nc12 + c1cc(-c2cnn3cc(-c4ccc(OCCN5CCCCC5)cc4)cnc23)ccn1 [Dorsomorphin] (first compound 0.2 µM, partner dose 0.4 µM)",99.6%,95.7%,95%,101%,96.7%,–,97.4%,106%,93.3%,71.7%
"Cn1nnc2c(C(N)=O)ncn2c1=O [temozolomide] + COc1cc2ncnc(Nc3ccc(Oc4ccccc4)cc3)c2cc1OC [SrcI1] (first compound 2 µM, partner dose 2 µM)",85.7%,105%,116%,98.4%,94.7%,–,89%,81.7%,99.7%,115%
"Cc1cc(N2CCOCC2)cc2[nH]c(-c3c(NC[C@@H](O)c4cccc(Cl)c4)cc[nH]c3=O)nc12 + COc1cc2ncnc(Nc3ccc(Oc4ccccc4)cc3)c2cc1OC [SrcI1] (first compound 0.2 µM, partner dose 2 µM)",99%,79.5%,116%,110%,89.3%,–,85.3%,107%,89.4%,81.2%
"Cc1cc(N2CCOCC2)cc2[nH]c(-c3c(NC[C@@H](O)c4cccc(Cl)c4)cc[nH]c3=O)nc12 + O=C(O)C(=O)Nc1sc2c(c1C(=O)O)CCNC2 [TCS401] (first compound 0.2 µM, partner dose 1.66667 µM)",105%,97.9%,101%,90.1%,99.9%,–,91%,89.5%,94.5%,88.3%
"O=C(Nc1ccccc1)c1cc([N+](=O)[O-])ccc1Cl + c1cc(-c2cnn3cc(-c4ccc(OCCN5CCCCC5)cc4)cnc23)ccn1 [Dorsomorphin] (first compound 2 µM, partner dose 0.4 µM)",88.4%,87.1%,88.6%,112%,97.9%,–,116%,85.9%,90.2%,87.8%
"Cn1nnc2c(C(N)=O)ncn2c1=O [temozolomide] + O=c1cc(-c2cccc3c2Sc2ccccc2S3)oc(N2CCOCC2)c1 [KU55933] (first compound 2 µM, partner dose 1 µM)",85.5%,99.1%,116%,120%,91.9%,–,114%,84.4%,96.6%,97.8%
"Cn1nnc2c(C(N)=O)ncn2c1=O [temozolomide] + COc1cc(N2CCC(N3CCN(C)CC3)CC2)ccc1Nc1ncc(Cl)c(Nc2ccccc2S(=O)(=O)C(C)C)n1 [NVP-TAE684] (first compound 2 µM, partner dose 0.08 µM)",85.7%,83.6%,93.2%,90.9%,96%,–,77.5%,91.6%,87.1%,95.4%
"Cc1cc(N2CCOCC2)cc2[nH]c(-c3c(NC[C@@H](O)c4cccc(Cl)c4)cc[nH]c3=O)nc12 + COc1ccc2c(c1)CCC1C2CCC2(C)C(NCCCCCCN3C(=O)C=CC3=O)CCC12 [U73122] (first compound 0.2 µM, partner dose 0.4 µM)",104%,95.1%,97.6%,87.8%,89.3%,–,78.7%,96.6%,114%,86.6%
"Cc1cc(N2CCOCC2)cc2[nH]c(-c3c(NC[C@@H](O)c4cccc(Cl)c4)cc[nH]c3=O)nc12 + O=c1cc(-c2cccc3c2Sc2ccccc2S3)oc(N2CCOCC2)c1 [KU55933] (first compound 0.2 µM, partner dose 1 µM)",100%,83.9%,90.5%,123%,82.1%,–,80.3%,82.7%,92.2%,74.7%
"O=C(Nc1ccccc1)c1cc([N+](=O)[O-])ccc1Cl + CCCCCCCCCCCC1=C(O)C(=O)C=C(O)C1=O [Embelin] (first compound 2 µM, partner dose 1.2 µM)",90.9%,107%,122%,90.5%,105%,–,92.1%,87.8%,96.1%,91.2%
"O=C(Nc1ccccc1)c1cc([N+](=O)[O-])ccc1Cl + Cn1cc(/C=C2\C(=O)Nc3cccnc32)c2ccccc21 [GW441756] (first compound 2 µM, partner dose 0.4 µM)",94.5%,100%,89.3%,98.1%,83.3%,–,87.7%,82.7%,76.9%,87.3%
"Cc1cc(N2CCOCC2)cc2[nH]c(-c3c(NC[C@@H](O)c4cccc(Cl)c4)cc[nH]c3=O)nc12 + CCN(CC)CCCCNc1ncc2cc(-c3cc(OC)cc(OC)c3)c(NC(=O)NC(C)(C)C)nc2n1 [PD173074] (first compound 0.2 µM, partner dose 0.1 µM)",104%,93.6%,102%,120%,107%,–,84.9%,87.8%,91.5%,74.4%
"Cn1nnc2c(C(N)=O)ncn2c1=O [temozolomide] + CCc1ccc(CCOc2ccc(CC3SC(=O)NC3=O)cc2)nc1 [pioglitazone] (first compound 2 µM, partner dose 2 µM)",83.5%,97.7%,89.2%,564%,77%,–,94.6%,81.7%,97.3%,114%
"Cn1nnc2c(C(N)=O)ncn2c1=O [temozolomide] + N#Cc1c(O)c2c(-c3ccc(-c4ccccc4O)cc3)csc2[nH]c1=O [A769662] (first compound 2 µM, partner dose 2 µM)",88.7%,111%,89.7%,96.3%,94.1%,–,94.9%,80.8%,116%,69.3%
"Cn1nnc2c(C(N)=O)ncn2c1=O [temozolomide] + Oc1cc(-c2nc(-c3ccccc3)[nH]c2-c2ccncc2)ccc1Cl [L779450] (first compound 2 µM, partner dose 0.2 µM)",77.6%,91%,96.6%,84.9%,76.2%,–,86.8%,61.6%,105%,108%
"Cc1cc(N2CCOCC2)cc2[nH]c(-c3c(NC[C@@H](O)c4cccc(Cl)c4)cc[nH]c3=O)nc12 + CCCCCCCCCCCC1=C(O)C(=O)C=C(O)C1=O [Embelin] (first compound 0.2 µM, partner dose 1.2 µM)",101%,90.2%,98.7%,118%,92.7%,–,80.1%,101%,109%,77.9%
"O=C(Nc1ccccc1)c1cc([N+](=O)[O-])ccc1Cl + O=C(O)C(=O)Nc1sc2c(c1C(=O)O)CCNC2 [TCS401] (first compound 2 µM, partner dose 1.66667 µM)",93.7%,96.3%,89%,89.5%,79.6%,–,80.9%,85.8%,84%,86.8%
"O=C(Nc1ccccc1)c1cc([N+](=O)[O-])ccc1Cl + N#Cc1c(O)c2c(-c3ccc(-c4ccccc4O)cc3)csc2[nH]c1=O [A769662] (first compound 2 µM, partner dose 2 µM)",103%,107%,110%,105%,90.6%,–,120%,99.8%,89.5%,97.2%
"Cn1nnc2c(C(N)=O)ncn2c1=O [temozolomide] + O=C(O)C(=O)Nc1sc2c(c1C(=O)O)CCNC2 [TCS401] (first compound 2 µM, partner dose 1.66667 µM)",89.6%,107%,108%,92.1%,79.7%,–,97.5%,76%,105%,92.4%
"Cc1cc(N2CCOCC2)cc2[nH]c(-c3c(NC[C@@H](O)c4cccc(Cl)c4)cc[nH]c3=O)nc12 + Cc1cc([N+](=O)[O-])ccc1NS(=O)(=O)c1cc(Cl)ccc1Cl [FH535] (first compound 0.2 µM, partner dose 1 µM)",98.1%,86.2%,102%,98.8%,94.2%,–,79.4%,89%,82%,66.5%
"Cc1cc(N2CCOCC2)cc2[nH]c(-c3c(NC[C@@H](O)c4cccc(Cl)c4)cc[nH]c3=O)nc12 + COc1ccc(COc2ccc(Cc3cnc(N)nc3N)cc2OC)cc1 [GW2580] (first compound 0.2 µM, partner dose 1 µM)",99.2%,91.5%,102%,51.3%,97.7%,–,76.1%,105%,106%,81.3%
"Cn1nnc2c(C(N)=O)ncn2c1=O [temozolomide] + O=C(Nc1ccccc1)c1cc([N+](=O)[O-])ccc1Cl [GW9662] (first compound 2 µM, partner dose 2 µM)",93.2%,95.2%,104%,90.7%,80.2%,–,72.1%,76.7%,93.7%,88.6%
